Experimental data from PubChem BioAssay AID485344 (National Center for Advancing Translational Sciences (NCATS), 2010).
The whole screen tested about 340,000 compounds, of which about 6,900 (2%) were called active. Rule as the data show it: active = inhibition above about 30%; inactive = below that, where a call was filed. The entries are a selection whose mix differs from that of the whole data set. Where no call is shown, the source filed none. Some structures have more than one record in an assay (separate samples or runs), and their calls can disagree.

molecular target: D(2) dopamine receptor (Homo sapiens) (UniProt P14416); test: HTS Assay for Allosteric Antagonists of the Human D2 Dopamine Receptor: Primary Screen for Antagonists; details: HEK293 TREx D2 cells, calcium flux, dopamine EC80; at 10 µM; stronger effect = higher value; also: 0% is about no effect
Outline: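 Overnight-induced (tetracycline, 30 C) HEK293 T-REx cells carrying force-coupled D2 receive a no-wash calcium dye, then compound, then EC80 dopamine at 180 s; signals are read kinetically throughout.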

Sequence of UniProt P14416 (P14416 whole entry, looked up): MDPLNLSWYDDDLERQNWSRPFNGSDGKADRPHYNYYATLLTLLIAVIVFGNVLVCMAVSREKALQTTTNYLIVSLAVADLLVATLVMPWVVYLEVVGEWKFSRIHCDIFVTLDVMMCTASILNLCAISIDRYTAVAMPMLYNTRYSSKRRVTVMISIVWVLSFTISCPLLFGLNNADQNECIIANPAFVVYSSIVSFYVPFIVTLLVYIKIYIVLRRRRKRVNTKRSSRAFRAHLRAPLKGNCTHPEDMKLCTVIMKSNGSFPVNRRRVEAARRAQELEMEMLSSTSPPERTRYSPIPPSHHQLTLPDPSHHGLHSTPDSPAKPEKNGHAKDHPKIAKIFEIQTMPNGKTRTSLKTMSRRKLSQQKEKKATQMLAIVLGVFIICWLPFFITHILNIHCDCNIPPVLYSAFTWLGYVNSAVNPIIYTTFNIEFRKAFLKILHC

Row | Structure (SMILES) | inhibition
1 | CCOC(=O)c1c(NC(=O)c2nc(SCC)ncc2Cl)sc(C(C)=O)c1C | 12.5%
2 | CCOC(=O)c1ccc(N2CCN(c3cccc(OC)c3)CC2)c(NC(=O)Nc2ccc(OCC)cc2)c1 | -0.75%
3 | O=C(O)c1ccc(CNCc2ccc(Cl)cc2)s1 | 4.17%
4 | Cc1ccc2nc(Nc3cccc(Cl)c3C)c(-n3nc(C)cc3C)nc2c1 | 12.2%
5 | Cc1ccccc1NC(=O)Cn1c(SCC(=O)Nc2ccc(F)cc2)nc2ccccc21 | -28.6%
6 | CCCC(=O)Nc1ccc2c(c1)nc(CCN1CCN(c3ccccn3)CC1)n2C | active: 46.8%
7 | OC(COc1ccc(F)cc1)CN1CCN(c2ccccc2F)CC1 (centres undefined) | active: 86.9%
8 | Cc1ccc(-c2nc3cnccn3c2Nc2ccc3c(c2)OCO3)o1 | active: 35.5%
9 | COc1cc(CNC(=O)c2ccc3c(c2)N(C)C(=O)C2CCCCN32)cc(OC)c1OC (centres undefined) | 4.41%
10 | COC(=O)c1cc2sc(C)cc2n1CC(=O)Nc1ccc(C)c(C)c1 | -11.4%
11 | CCc1ccc(NC(=O)CN2CCCN(Cc3cccc(Cl)c3)S2(=O)=O)cc1 | -2.89%
12 | CCOc1ccc(NC(=O)c2cc(S(=O)(=O)N3CCCCCC3)cn2C)cc1 | -18.2%
13 | Cc1c2cnn(-c3ccccc3)c(=O)c2c(C)n1CC(=O)NCCc1ccc(Cl)cc1 | 4.03%
14 | COc1ccc2c(c1)c1c(c(=O)n(-c3ccc(F)c(Cl)c3)c(=O)n1CC(=O)N1CCCC1)n2C | -3.92%
15 | Cc1ccc(-n2c(=O)c3c4c(sc3n(CC(=O)c3ccc(Cl)cc3)c2=O)CCC4)cc1C | 1.74%
16 | CC(=O)N1c2ccc(S(=O)(=O)NCC3CCC(C(=O)Nc4ccc(C)cc4)CC3)cc2CC1C (centres undefined) | 0.434%
17 | CN(Cc1ccco1)C(=O)c1ccc2c(c1)N(Cc1ccccc1F)C(=O)c1ccccc1S2 | -3.71%
18 | COCCn1c(SCc2nc3sc(C(=O)OC)c(C)c3c(=O)[nH]2)nc2ccccc21 | active: 30.6%
19 | Cc1cc(C(=O)COC(=O)Cn2cnc3c2c(=O)n(C)c(=O)n3C)c(C)n1C | active: 45%
20 | COc1ccccc1-c1nnc(SCC(=O)Nc2ccccc2F)o1 | 6.18%
21 | CCC1CN(C(=O)N2CCC(C(=O)N3CCN(c4cccc(C)c4C)CC3)CC2)c2ccccc2O1 (centres undefined) | -16.5%
22 | Cc1ccc(Cl)cc1NC(=O)CCC(=O)N1CC(C)Sc2ccccc21 (centres undefined) | 0.437%
23 | O=C(NCCc1ccc(Cl)cc1)C1CCN(c2ncnc3c2nc2n3CCCCC2)CC1 | 10%
24 | COC(=O)c1ccsc1NC(=O)CS(=O)(=O)c1ccccc1 | active: 30.6%
25 | O=C(CSc1nnc(-c2cccc(Cl)c2)o1)N1CCc2ccccc21 | 0.602%

Row | Structure (SMILES) | inhibition
26 | COc1cc(C(=O)OC(C)CN2CCOCC2)cc(OC)c1OC (centres undefined) | active: 40%
27 | Cc1ccn2c(Nc3ccc(C(C)C)cc3)c(-c3cccs3)nc2c1 | 8.07%
28 | COc1ccc(C2C=C(c3cccc(OC)c3)Nc3c(C(=O)Nc4ccccc4)cnn32)cc1 (centres undefined) | -18.5%
29 | O=C(Nc1ccc2oc(-c3ccc(O)c(Br)c3)nc2c1)c1cc2ccccc2o1 | 2.12%
30 | CC(=O)Nc1cccc(NC(=O)CN2C(=O)CCSc3ccccc32)c1 | -9.24%
31 | O=c1[nH]c(NNC(=S)NC2CCCCC2)nc2c1C1(CCCC1)Cc1ccccc1-2 | active: 38.2%
32 | Cc1nc2nc(NC(=O)c3ccccc3F)[nH]n2c(=O)c1Cl | -13.9%
33 | CC(C)CN(CCCNC(=O)c1cc(=O)[nH]c2ccc(S(=O)(=O)N3CCCCCC3)cc12)CC(C)C | -3.53%
34 | CC(=O)N1c2nc(C(C)C)nn2C2(CCCCC2)[C@@H]2CCCC[C@@H]21 | 0.337%
35 | Cc1nn(-c2ccc(F)cc2)c(-n2cccc2)c1C(=O)N1CCN(c2ccc(F)cc2)CC1 | 0.168%
36 | CNC[C@H](O)c1cccc(O)c1 | active: 90.9%
37 | COc1ccc(NC(=O)c2nnn(Cc3ccccc3C)c2N)c(OC)c1 | 7.41%
38 | Cc1ccc(C(=O)Nc2c(-c3ccccc3)nc3ccccn23)cc1C | -7.46%
39 | O=C(CSc1ccc(-c2ccccn2)nn1)Nc1ccc(F)c(F)c1 | 1.37%
40 | CN(C)CCNC(=O)C1CCN(c2nc3ccccc3[nH]2)CC1 | -20.7%
41 | COc1ccc(NC(=O)Nc2nnc(N3CCCCCC3)s2)cc1 | -0.677%
42 | Cc1ccc(NC(=O)c2nc(S(C)(=O)=O)ncc2N(Cc2ccccc2)Cc2ccco2)c(C)c1 | 10.1%
43 | Cc1c(NC(=O)c2cc([N+](=O)[O-])ccc2N2CCOCC2)cccc1-c1nc2ccccc2o1 | -9.54%
44 | Cc1ccc(C2CC(=O)N(Cc3ccccc3F)c3c2c(C)nn3-c2nc(C)cc(C)n2)cc1 (centres undefined) | 17%
45 | CCn1cc(C(=O)N2CCN(c3cccc(Cl)c3)CC2)c(=O)c2cc(S(=O)(=O)N3CCOCC3)ccc21 | 7.84%
46 | Cc1ccc(Cc2nc3ccccc3nc2SCC(=O)N2CCc3ccccc32)cc1 | 6.37%
47 | COc1cc(OC)c(NC(=O)c2c(C)oc3ncn(C)c(=O)c23)cc1Cl | 12.7%
48 | CCOc1ccc(CCNC(=O)CCc2c(C)nc3c(c(C)nn3-c3ccccc3)c2C)cc1OCC | -4.34%
49 | CCOc1ccc(NC(=O)c2ccc(NC(=O)CCS(=O)(=O)c3cccs3)cc2)cc1 | -14.4%
